# Measured values from PubChem BioAssay AID624296 (National Center for Advancing Translational Sciences (NCATS), 2012).
# Screen size: about 350,000 compounds; about 9,900 (2.8%) were called active. The inconclusive results got no clear call from the source; some entries with a clear call stand among them for comparison. The call rests on the fitted dose curve; in most records, active means well fitted activation curve with a large enough effect; inconclusive means small, poorly fitted or top-dose-only effect; inactive means no such curve, though single readings can be large or run the other way. Potencies of inconclusive entries are left out as doubtful fits.
# Assay: A quantitative high throughput screen for small molecules that induce DNA re-replication in MCF 10a normal breast cells. Further: nearly all actives have a fitted effect of over 50% in size. On activity, positive = re-replication: % of control where 0% means no effect.
# Conditions: MCF 10A DNA re-replication, Hoechst nuclear intensity, 48 h; activity, positive = re-replication: at 46.1 µM (top of the series)
# Potency means the concentration at half of the fitted maximal effect; tags describe the fitted curve by direction and shape.
Compound,"activity, positive = re-replication",Potency
COc1ccccc1N1CCN(/N=C/C=C/c2ccccc2[N+](=O)[O-])CC1,inactive: 5.73%,
CN(C(=O)c1ccco1)c1nc(-c2ccc(F)cc2)cs1,inactive: -0.825%,
COc1ccc(-c2csc(NC(=O)c3cc(C)oc3C)n2)cc1OC,,"inconclusive [activator, single point]"
CC(NC(=O)c1cc2sccc2n1C)c1ccc2c(c1)OCCO2 (stereo unspecified),,"inconclusive [activator, partial curve]"
COc1ccc(CCNCc2c(OC)ccc3ccccc23)cc1OC,,"inconclusive [activator, partial curve, poor fit]"
O=C(Cc1nnc(NC(=O)Nc2ccccc2F)s1)NCc1ccccc1,inactive: -12.1%,
c1ccc(-n2nnnc2Sc2n[nH]c(-c3ccncc3)n2)cc1,inactive: 330% [at 0.0737 µM],
COc1ccccc1C(=O)Nc1ccc2c(c1)nc(CCNC(C)=O)n2C,inactive: -3.56%,
NC(=O)c1c(NC(=O)c2ccccc2)sc2c1CCc1ccccc1-2,,"inconclusive [activator, partial curve]"
CCOc1ccc(-n2c(=O)c3c4c(sc3n(CC(=O)NCC3CCCO3)c2=O)CCC4)cc1 (stereo unspecified),inactive: -0.651%,
O=C(NC1CCCCC1)C(c1ccncc1)N(C(=O)c1csnn1)c1ccc(F)cc1 (stereo unspecified),inactive: -25.8%,
C/C(=N/NC(=O)c1ccccn1)c1ccc(O)cc1,inactive: -5.36%,
Cc1sc(NC(=O)c2ccccc2)c(C(=O)c2ccccc2)c1C,inactive: 13.9%,
O=C(N[C@@H]1CCC(=O)N(CC[C@H](Oc2ccccc2)c2ccccc2)CC1)OCc1ccccc1,,"inconclusive [activator, partial curve, poor fit]"
CCOC(=O)C(C)(C)N(Cc1cccc(C)c1)S(=O)(=O)c1cccc([N+](=O)[O-])c1,inactive: 5.33%,
CCCCN(CC)CCNC(=O)c1cc2c(=O)[nH]c3ccc(C)cc3c2s1,inactive: -15.3%,
CCC1CCC2(CC1)NC(=O)N(CC(=O)NCc1ccc(Cl)cc1)C2=O (stereo unspecified),,"inconclusive [activator, single point]"
Cc1ccc(C(C)C)cc1OCCn1cncn1,,"inconclusive [activator, single point]"
COC(=O)C1CCN(Cc2ccc(OCCCN3CCN(c4ccc([N+](=O)[O-])cc4)CC3)cc2)CC1,,"inconclusive [activator, single point]"
O=C(Nc1cccc2ncccc12)c1ccc(-c2ccc(Cl)cc2Cl)o1,inactive: 15.5%,
CCC(C)[C@H](NC(=O)[C@@H]1Cc2ccccc2CN1)C(=O)NCc1ccc(OC)cc1 (stereo partly specified),,"inconclusive [activator, partial curve, poor fit]"
C=CCC(NCc1ccccc1)c1ccco1 (stereo unspecified),inactive: 4.08%,
Fc1cccc(CNc2ncnc3ccc(-c4ccc5c(c4)OCO5)cc23)c1,,"inconclusive [activator, single point]"
O=C1c2c(O)ccc(O)c2C(=O)c2c(NCCNCCO)ccc(NCCNCCO)c21,,inactive

Compound,"activity, positive = re-replication",Potency
O=C(CSc1nc(Nc2ccccc2)nc(N2CCOCC2)n1)Nc1cc(Cl)ccc1O,,"inconclusive [activator, single point]"
CCOC(=O)Nc1ccc2c(c1)C(=NNC(N)=S)c1ccccc1-2,,"inconclusive [activator, single point]"
COc1cc(OC)cc(-c2cc3nc(C4CCN(C(=O)OC(C)(C)C)CC4)cc(=O)n3[nH]2)c1,,"inconclusive [activator, single point]"
COCCCNC(=O)C1CCC(CNS(=O)(=O)c2ccc3c(c2)CC(C)N3C(=O)C2CC2)CC1 (stereo unspecified),inactive: 6.34%,
CCOc1ccc(S(=O)(=O)N(CC(=O)Nc2cccnc2)c2ccc(F)cc2)cc1,,"inconclusive [activator, partial curve, poor fit]"
Cc1ccc(NC(=O)COC(=O)C2=NNC(=O)CC2)c(Br)c1,,"inconclusive [activator, single point]"
Cc1cc(N2CCN(S(=O)(=O)c3ccccc3)CC2)c2ccccc2n1,,active: 3.66 µM
CCOC(=O)c1c(NC(=S)NCc2ccccc2)sc2c1CCN(C(=O)OCC)C2,,"inconclusive [activator, partial curve, poor fit]"
CCOc1ccc(N2C(=O)CC(N(CCc3ccc(OC)c(OC)c3)C(=S)Nc3ccccc3)C2=O)cc1 (stereo unspecified),,active: 23.1 µM
O=c1c(C(c2ccc(Br)cc2)c2c(O)nc3n(c2=O)CCCS3)c(O)nc2n1CCCS2,inactive: -1.7%,
CCOc1cccc2sc(N(CCN(C)C)C(=O)CCS(=O)(=O)c3ccccc3)nc12,inactive: -2.99%,
O=c1[nH]c2cc3c(cc2cc1CN(Cc1cccnc1)Cc1nnnn1Cc1ccco1)OCCO3,inactive: 3.11%,
O=C(Cc1cccs1)Nc1ccc(NC(=O)c2ccco2)cc1,,"inconclusive [activator, full curve, poor fit]"
Cc1nonc1NC(=O)CSc1nc2ccccc2o1,inactive: -2.91%,
COc1ccc(/C=C/c2ccncc2)c2ccccc12,inactive: -0.949%,
CCC(=O)Nc1c(C#N)c2nc3ccccc3nc2n1-c1ccc(C)cc1,,active: 23.1 µM
N#CCCN(C(=O)COC(=O)c1ccc2c(c1)NC(=O)CS2)c1ccc2c(c1)OCCO2,inactive: 6.17%,
COc1ccc(Cn2c(-c3ccc(C)cc3)c[n+]3ccccc23)cc1,,"inconclusive [activator, partial curve, poor fit]"
Cc1ccc(-c2nc3ccccc3n3nnnc23)cc1,inactive: 7.38%,
O=C(Nn1cnnc1)c1cc(Cl)cc(Cl)c1,inactive: 8.4%,
CN1CCNC(=O)C1CC(=O)N1CC=C(c2ccc(F)cc2)CC1 (stereo unspecified),,"inconclusive [activator, partial curve, poor fit]"
CCC(=O)N1CCN(c2ccccc2NC(=O)COc2ccc(C(C)C)cc2)CC1,,"inconclusive [activator, partial curve, poor fit]"
O=C(NCc1ccc2c(c1)OCO2)c1cc([N+](=O)[O-])ccc1N1CCOCC1,,active: 5.8 µM
CCOc1cc2c(cc1/C=C1/NC(=O)N(CC(=O)OC)C1=O)OCO2,,"inconclusive [activator, single point]"

Compound,"activity, positive = re-replication",Potency
COc1ccc(CCN(C)C(=O)COc2ccc(N(C)S(=O)(=O)c3ccc(C)cc3)cc2)cc1OC,inactive: -0.368%,
Brc1ccc(-c2nnc(SCCC3OCCCO3)o2)cc1,,"inconclusive [activator, partial curve, poor fit]"
Cc1ccc(C)n1-c1cccc(NC(=O)c2ccccc2)c1,,"inconclusive [activator, single point]"
NC(=O)c1nsc(C(=O)N(c2ccccc2)C(C(=O)NC2CCCC2)c2ccncc2)c1N (stereo unspecified),,"inconclusive [activator, single point]"
COc1cccc(C(=O)NCCS(=O)(=O)NCCCc2ccccc2)c1,inactive: -5.31%,
CCN(CC)Cc1ccc(NC(=O)c2sc3cc(Cl)ccc3c2Cl)cc1,,"inconclusive [activator, single point]"
COc1ccc(OC)c(NC(=O)CN2CCC(C(=O)c3ccc(C)cc3)CC2)c1,,active: 18.4 µM
O=C(NCCCN1CCCC1=O)[C@H](CSCc1ccccc1)N1Cc2ccccc2C1=O,inactive: -9.71%,
CCC(=O)Nc1ccc(Cl)c(NC(=S)NC(=O)c2cc3ccccc3o2)c1,,"inconclusive [activator, partial curve, poor fit]"
COc1ccc(C(C)=O)cc1CSCC(=O)O,,"inconclusive [activator, single point]"
CCOC(=O)c1nnn(-c2nonc2N)c1COc1cc(C)c(Cl)c(C)c1,,"inconclusive [activator, single point]"
C[n+]1ccccc1/C=C/c1c(F)cccc1F,,"inconclusive [activator, partial curve, poor fit]"
c1coc(CNc2nc3nonc3nc2NCc2ccco2)c1,inactive: 14.9%,
COc1ccc(OC)c(/C=C/c2c([N+](=O)[O-])c(=O)n(C)c(=O)n2C)c1,inactive: -6.88%,
Cc1ccnc(NC(=O)C2CCCN(c3ncnc4c3nc3n4CCCCC3)C2)c1 (stereo unspecified),,"inconclusive [activator, full curve, poor fit]"
COc1ccc(C#Cc2c(-c3ccsc3)oc3ccc(N4CCOCC4)cc23)cc1,,active: 16.4 µM
CC(C)Oc1ccc(C(=O)Nc2ccc(C(F)(F)F)n(C)c2=O)cc1,inactive: -3.62%,
CC(C)(C)OC(=O)N1CCC(C(=O)Nc2ccc(C(=O)N3CCCCC3)cc2)CC1,,"inconclusive [activator, full curve]"
O=C(COc1ccccc1C(=O)c1cnn(-c2ccccc2)c1)Nc1ccc2ccccc2c1,,"inconclusive [activator, partial curve, poor fit]"
Cn1nnnc1SCC1=C(C(=O)O)N2C(=O)C(NC(=O)Cn3nc(C(F)F)cc3C3CC3)C2SC1 (stereo unspecified),,active: 0.58 µM
CCCCn1c(=O)[nH]c(=O)c2c1nc(-c1ccc(OCC)cc1)n2CC,inactive: 15.1%,
CC1(C)CC(=O)C2=C(C1)c1c(ccc3ccccc13)NC2c1ccco1 (stereo unspecified),,"inconclusive [activator, partial curve, poor fit]"
C=C1[C@@H](O)[C@@H]2O[C@]3(CC[C@H](/C=C/[C@@H](C)[C@@H]4CC(C)=CC5(O[C@H](C[C@@](C)(O)C(=O)OC)CC[C@H]5O)O4)O3)CC[C@H]2O[C@@H]1[C@@H](O)C[C@H](C)[C@H]1OC2(CCCCO2)CC[C@H]1C (stereo partly specified),,"inconclusive [activator, full curve, poor fit]"
